Assay results as given in the supplement of paper PMC11876631.
± gives the standard deviation of the averaged measurements. Laboratory Escherichia coli strains with one amino-acid change in an essential protein, pooled on minimal glucose agar with carbenicillin or gentamicin at twice the control MIC (plus kanamycin and chloramphenicol for the plasmids), 48 h. Fold change of barcode share against drug-free plates; higher = less susceptible. Active = above 20 in both replicates (the paper's putatively resistant). '<' = one read or none on drug, '>' = one read or none on a drug-free plate. Shares are relative, so most strains fall below 1 when a few take over. Listed are strains with at least 15 reads on both drug-free plates, and hits; most hits rest on fewer reference reads. Replicate rank correlation about 0.5. Edits are read from barcodes.

B1: argH W335A (protein)
chain: MALWGGRFTQAADQRFKQFNDSLRFDYRLAEQDIVGSVAWSKALVTVGVLTAEEQAQLEEALNVLLEDVRARPQQILESDAEDIHSWVEGKLIDKVGQLGKKLHTGRSRNDQVATDLKLWCKDTVSELLTANRQLQSALVETAQNNQDAVMPGYTHLQRAQPVTFAHWCLAYVEMLARDESRLQDALKRLDVSPLGCGALAGTAYEIDREQLAGWLGFASATRNSLDSVSDRDHVLELLSAAAIGMVHLSRFAEDLIFFNTGEAGFVELSDRVTSGSSLMPQKKNPDALELIRGKCGRVQGALTGMMMTLKGLPLAYNKDMQEDKEGLFDALDTALDCLHMAALVLDGIQVKRPRCQEAAQQGYANATELADYLVAKGVPFREAHHIVGEAVVEAIRQGKPLEDLPLSELQKFSQVIDEDVYPILSLQSCLDKRAAKGGVSPQQVAQAIAFAQARLG
B2: hisI M19A (protein)
chain: MLTEQQRRELDWEKTDGLAPVIVQHAVSGEVLMLGYMNPEALDKTLESGKVTFFSRTKQRLWTKGETSGNFLNVVSIAPDCDNDTLLVLANPIGPTCHKGTSSCFGDTAHQWLFLYQLEQLLAERKSADPETSYTAKLYASGTKRIAQKVGEEGVETALAATVHDRFELTNEASDLMYHLLVLLQDQGLDLTTVIENLRKRHQ
B3: hisI M19Q (protein)
chain: MLTEQQRRELDWEKTDGLQPVIVQHAVSGEVLMLGYMNPEALDKTLESGKVTFFSRTKQRLWTKGETSGNFLNVVSIAPDCDNDTLLVLANPIGPTCHKGTSSCFGDTAHQWLFLYQLEQLLAERKSADPETSYTAKLYASGTKRIAQKVGEEGVETALAATVHDRFELTNEASDLMYHLLVLLQDQGLDLTTVIENLRKRHQ
B4: hisI M19W (protein)
chain: MLTEQQRRELDWEKTDGLWPVIVQHAVSGEVLMLGYMNPEALDKTLESGKVTFFSRTKQRLWTKGETSGNFLNVVSIAPDCDNDTLLVLANPIGPTCHKGTSSCFGDTAHQWLFLYQLEQLLAERKSADPETSYTAKLYASGTKRIAQKVGEEGVETALAATVHDRFELTNEASDLMYHLLVLLQDQGLDLTTVIENLRKRHQ
B5: hisG M11Q (protein)
chain: MTDNTRLRIAQQKSGRLSDDSRELLARCGIKINLHTQRLIAMAENMPIDILRVRDDDIPGLVMDGVVDLGIIGENVLEEELLNRRAQGEDPRYFTLRRLDFGGCRLSLATPVDEAWDGPLSLNGKRIATSYPHLLKRYLDQKGISFKSCLLNGSVEVAPRAGLADAICDLVSTGATLEANGLREVEVIYRSKACLIQRDGEMEESKQQLIDKLLTRIQGVIQARESKYIMMHAPTERLDEVIALLPGAERPTILPLAGDQQRVAMHMVSSETLFWETMEKLKALGASSILVLPIEKMME
B6: hisG L134A (protein)
chain: MTDNTRLRIAMQKSGRLSDDSRELLARCGIKINLHTQRLIAMAENMPIDILRVRDDDIPGLVMDGVVDLGIIGENVLEEELLNRRAQGEDPRYFTLRRLDFGGCRLSLATPVDEAWDGPLSLNGKRIATSYPHALKRYLDQKGISFKSCLLNGSVEVAPRAGLADAICDLVSTGATLEANGLREVEVIYRSKACLIQRDGEMEESKQQLIDKLLTRIQGVIQARESKYIMMHAPTERLDEVIALLPGAERPTILPLAGDQQRVAMHMVSSETLFWETMEKLKALGASSILVLPIEKMME
B7: hisH V4A (protein)
chain: MNVAILDTGCANLNSVKSAIARHGYEPKVSRDPDVVLLADKLFLPGVGTAQAAMDQVRERELFDLIKACTQPVLGICLGMQLLGRRSEESNGVDLLGIIDEDVPKMTDFGLPLPHMGWNRVYPQAGNRLFQGIEDGAYFYFVHSYAMPVNPWTIAQCNYGEPFTAAVQKDNFYGVQFHPERSGAAGAKLLKNFLEM
B8: hisH V4D (protein)
chain: MNVDILDTGCANLNSVKSAIARHGYEPKVSRDPDVVLLADKLFLPGVGTAQAAMDQVRERELFDLIKACTQPVLGICLGMQLLGRRSEESNGVDLLGIIDEDVPKMTDFGLPLPHMGWNRVYPQAGNRLFQGIEDGAYFYFVHSYAMPVNPWTIAQCNYGEPFTAAVQKDNFYGVQFHPERSGAAGAKLLKNFLEM
B9: hisH I5Q (protein)
chain: MNVVQLDTGCANLNSVKSAIARHGYEPKVSRDPDVVLLADKLFLPGVGTAQAAMDQVRERELFDLIKACTQPVLGICLGMQLLGRRSEESNGVDLLGIIDEDVPKMTDFGLPLPHMGWNRVYPQAGNRLFQGIEDGAYFYFVHSYAMPVNPWTIAQCNYGEPFTAAVQKDNFYGVQFHPERSGAAGAKLLKNFLEM
B10: hisH I5W (protein)
chain: MNVVWLDTGCANLNSVKSAIARHGYEPKVSRDPDVVLLADKLFLPGVGTAQAAMDQVRERELFDLIKACTQPVLGICLGMQLLGRRSEESNGVDLLGIIDEDVPKMTDFGLPLPHMGWNRVYPQAGNRLFQGIEDGAYFYFVHSYAMPVNPWTIAQCNYGEPFTAAVQKDNFYGVQFHPERSGAAGAKLLKNFLEM
B11: hisH V16A (protein)
chain: MNVVILDTGCANLNSAKSAIARHGYEPKVSRDPDVVLLADKLFLPGVGTAQAAMDQVRERELFDLIKACTQPVLGICLGMQLLGRRSEESNGVDLLGIIDEDVPKMTDFGLPLPHMGWNRVYPQAGNRLFQGIEDGAYFYFVHSYAMPVNPWTIAQCNYGEPFTAAVQKDNFYGVQFHPERSGAAGAKLLKNFLEM
B12: hisH L6W (protein)
chain: MNVVIWDTGCANLNSVKSAIARHGYEPKVSRDPDVVLLADKLFLPGVGTAQAAMDQVRERELFDLIKACTQPVLGICLGMQLLGRRSEESNGVDLLGIIDEDVPKMTDFGLPLPHMGWNRVYPQAGNRLFQGIEDGAYFYFVHSYAMPVNPWTIAQCNYGEPFTAAVQKDNFYGVQFHPERSGAAGAKLLKNFLEM
B13: hisH L6A (protein)
chain: MNVVIADTGCANLNSVKSAIARHGYEPKVSRDPDVVLLADKLFLPGVGTAQAAMDQVRERELFDLIKACTQPVLGICLGMQLLGRRSEESNGVDLLGIIDEDVPKMTDFGLPLPHMGWNRVYPQAGNRLFQGIEDGAYFYFVHSYAMPVNPWTIAQCNYGEPFTAAVQKDNFYGVQFHPERSGAAGAKLLKNFLEM
B14: hisH I5A (protein)
chain: MNVVALDTGCANLNSVKSAIARHGYEPKVSRDPDVVLLADKLFLPGVGTAQAAMDQVRERELFDLIKACTQPVLGICLGMQLLGRRSEESNGVDLLGIIDEDVPKMTDFGLPLPHMGWNRVYPQAGNRLFQGIEDGAYFYFVHSYAMPVNPWTIAQCNYGEPFTAAVQKDNFYGVQFHPERSGAAGAKLLKNFLEM
B15: hisH L6Q (protein)
chain: MNVVIQDTGCANLNSVKSAIARHGYEPKVSRDPDVVLLADKLFLPGVGTAQAAMDQVRERELFDLIKACTQPVLGICLGMQLLGRRSEESNGVDLLGIIDEDVPKMTDFGLPLPHMGWNRVYPQAGNRLFQGIEDGAYFYFVHSYAMPVNPWTIAQCNYGEPFTAAVQKDNFYGVQFHPERSGAAGAKLLKNFLEM
B16: hisH V4Q (protein)
chain: MNVQILDTGCANLNSVKSAIARHGYEPKVSRDPDVVLLADKLFLPGVGTAQAAMDQVRERELFDLIKACTQPVLGICLGMQLLGRRSEESNGVDLLGIIDEDVPKMTDFGLPLPHMGWNRVYPQAGNRLFQGIEDGAYFYFVHSYAMPVNPWTIAQCNYGEPFTAAVQKDNFYGVQFHPERSGAAGAKLLKNFLEM
B17: hisH L6P (protein)
chain: MNVVIPDTGCANLNSVKSAIARHGYEPKVSRDPDVVLLADKLFLPGVGTAQAAMDQVRERELFDLIKACTQPVLGICLGMQLLGRRSEESNGVDLLGIIDEDVPKMTDFGLPLPHMGWNRVYPQAGNRLFQGIEDGAYFYFVHSYAMPVNPWTIAQCNYGEPFTAAVQKDNFYGVQFHPERSGAAGAKLLKNFLEM
B18: hisH V16W (protein)
chain: MNVVILDTGCANLNSWKSAIARHGYEPKVSRDPDVVLLADKLFLPGVGTAQAAMDQVRERELFDLIKACTQPVLGICLGMQLLGRRSEESNGVDLLGIIDEDVPKMTDFGLPLPHMGWNRVYPQAGNRLFQGIEDGAYFYFVHSYAMPVNPWTIAQCNYGEPFTAAVQKDNFYGVQFHPERSGAAGAKLLKNFLEM
B19: hisH V4P (protein)
chain: MNVPILDTGCANLNSVKSAIARHGYEPKVSRDPDVVLLADKLFLPGVGTAQAAMDQVRERELFDLIKACTQPVLGICLGMQLLGRRSEESNGVDLLGIIDEDVPKMTDFGLPLPHMGWNRVYPQAGNRLFQGIEDGAYFYFVHSYAMPVNPWTIAQCNYGEPFTAAVQKDNFYGVQFHPERSGAAGAKLLKNFLEM

target: Escherichia coli (laboratory strain); experiment: barcode share on antibiotic plates over drug-free plates; higher = less susceptible; settings: antibiotic: carbenicillin; 2× MIC (3.1 µg/mL)
Procedure: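 A pool of E. coli strains, each edited to carry one amino-acid change in an essential protein, was grown for 48 h on minimal glucose agar with or without antibiotic; strain barcodes were sequenced; mean of two replicates.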

Question: How did the “fold change of barcode share” value turn out when B1 was run?
Answer: The value was 0.727 ± 0.092.

Question: How did the “fold change of barcode share” value turn out when B2 was run?
Answer: The value was 0.432 ± 0.033.

Question: How did the “fold change of barcode share” value turn out when B3 was run?
Answer: Its value is 0.6661 ± 0.00073.

Question: B4 was tested. Which “fold change of barcode share” value did it give?
Answer: The value was 0.705 ± 0.2.

Question: How did the “fold change of barcode share” value turn out when B5 was run?
Answer: Its value is 0.632 ± 0.16.

Question: With B6 as the protein, how does the “fold change of barcode share” value read?
Answer: The value was 0.532 ± 0.33.

Question: With B7 as the protein, how does the “fold change of barcode share” value read?
Answer: Its value is 0.749 ± 0.067.

Question: How did the “fold change of barcode share” value turn out when B8 was run?
Answer: Its value is 99.5 [active].

Question: With B9 as the protein, how does the “fold change of barcode share” value read?
Answer: Its value is > 27.4 [active].

Question: With B10 as the protein, how does the “fold change of barcode share” value read?
Answer: Its value is > 42.3 [active].

Question: Which “fold change of barcode share” value does the source give for B11 here?
Answer: The value was 0.867 ± 0.24.

Question: B12 was tested. Which “fold change of barcode share” value did it give?
Answer: Its value is 1.16 ± 0.17.

Question: Which “fold change of barcode share” value does the source give for B13 here?
Answer: Its value is 0.601 ± 0.17.

Question: For B14, which “fold change of barcode share” value is on record?
Answer: The value was > 52.5 [active].

Question: For B15, which “fold change of barcode share” value is on record?
Answer: The value was 6.45 ± 3.5.

Question: With B16 as the protein, how does the “fold change of barcode share” value read?
Answer: The value was 0.826 ± 0.14.

Question: B17 was tested. Which “fold change of barcode share” value did it give?
Answer: The value was 22.7 ± 9.8.

Question: Which “fold change of barcode share” value does the source give for B18 here?
Answer: Its value is 45.8 [active].

Question: B19 was tested. Which “fold change of barcode share” value did it give?
Answer: Its value is > 178 [active].

same assay, conditions: antibiotic: gentamicin; 2× MIC (MIC 0.45 µg/mL)

Question: B1 was tested. Which “fold change of barcode share” value did it give?
Answer: Its value is 0.199 ± 0.27.

Question: Which “fold change of barcode share” value does the source give for B2 here?
Answer: The value was under 0.0038.

Question: Which “fold change of barcode share” value does the source give for B3 here?
Answer: The value was 0.0161 ± 0.0076.

Question: For B4, which “fold change of barcode share” value is on record?
Answer: Its value is 0.0125 ± 0.012.

Question: For B5, which “fold change of barcode share” value is on record?
Answer: The value was under 0.00614.

Question: How did the “fold change of barcode share” value turn out when B6 was run?
Answer: Its value is under 0.018.

Question: With B7 as the protein, how does the “fold change of barcode share” value read?
Answer: Its value is under 0.00392.

Question: How did the “fold change of barcode share” value turn out when B11 was run?
Answer: The value was 0.00818 ± 0.0087.

Question: How did the “fold change of barcode share” value turn out when B12 was run?
Answer: The value was 0.00974 ± 0.0026.

Question: B13 was tested. Which “fold change of barcode share” value did it give?
Answer: The value was 0.00896 ± 0.0012.

Question: How did the “fold change of barcode share” value turn out when B15 was run?
Answer: Its value is 0.0198 ± 0.0026.

Question: How did the “fold change of barcode share” value turn out when B16 was run?
Answer: Its value is 0.013 ± 0.0097.

Question: How did the “fold change of barcode share” value turn out when B17 was run?
Answer: The value was under 0.0156.
